For experiment [1], the target named is T1, GFP tagged to wild-type GRAB (GRAB-GFP) (UniProt Q8TBN0).
T1 sequence: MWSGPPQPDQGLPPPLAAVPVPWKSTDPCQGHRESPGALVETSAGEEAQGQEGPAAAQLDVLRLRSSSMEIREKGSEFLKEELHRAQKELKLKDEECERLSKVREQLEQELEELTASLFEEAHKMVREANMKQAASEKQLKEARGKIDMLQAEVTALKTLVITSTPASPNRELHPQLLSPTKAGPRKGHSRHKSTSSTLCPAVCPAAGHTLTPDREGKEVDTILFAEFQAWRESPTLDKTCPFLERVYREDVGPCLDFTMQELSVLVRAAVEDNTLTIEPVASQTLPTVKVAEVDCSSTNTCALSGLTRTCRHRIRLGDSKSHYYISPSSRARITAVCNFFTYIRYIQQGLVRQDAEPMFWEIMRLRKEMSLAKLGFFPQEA
Kind of experiment: co-IP; GFP-fused protein precipitated with GFP-Trap beads from 350-800 µg total HeLa cell extract (RIPA: 50 mM Tris-HCl pH 7.5, 150 mM NaCl, 1% IGEPAL), 2 h at 4°C; washed with RIPA 500 mM NaCl and 150 mM NaCl; western blot. (In general: In western blotting, separated proteins are transferred to a membrane and probed.)

Protein sequences, listed by entry. Tags and fused reporters are not part of them.
UniProt P62491: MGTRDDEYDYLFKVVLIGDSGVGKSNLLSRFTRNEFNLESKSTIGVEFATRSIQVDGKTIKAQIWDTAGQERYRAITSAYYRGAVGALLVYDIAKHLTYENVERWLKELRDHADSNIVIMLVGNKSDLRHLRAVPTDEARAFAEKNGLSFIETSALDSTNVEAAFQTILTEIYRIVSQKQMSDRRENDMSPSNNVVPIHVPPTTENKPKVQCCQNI
UniProt Q96A65: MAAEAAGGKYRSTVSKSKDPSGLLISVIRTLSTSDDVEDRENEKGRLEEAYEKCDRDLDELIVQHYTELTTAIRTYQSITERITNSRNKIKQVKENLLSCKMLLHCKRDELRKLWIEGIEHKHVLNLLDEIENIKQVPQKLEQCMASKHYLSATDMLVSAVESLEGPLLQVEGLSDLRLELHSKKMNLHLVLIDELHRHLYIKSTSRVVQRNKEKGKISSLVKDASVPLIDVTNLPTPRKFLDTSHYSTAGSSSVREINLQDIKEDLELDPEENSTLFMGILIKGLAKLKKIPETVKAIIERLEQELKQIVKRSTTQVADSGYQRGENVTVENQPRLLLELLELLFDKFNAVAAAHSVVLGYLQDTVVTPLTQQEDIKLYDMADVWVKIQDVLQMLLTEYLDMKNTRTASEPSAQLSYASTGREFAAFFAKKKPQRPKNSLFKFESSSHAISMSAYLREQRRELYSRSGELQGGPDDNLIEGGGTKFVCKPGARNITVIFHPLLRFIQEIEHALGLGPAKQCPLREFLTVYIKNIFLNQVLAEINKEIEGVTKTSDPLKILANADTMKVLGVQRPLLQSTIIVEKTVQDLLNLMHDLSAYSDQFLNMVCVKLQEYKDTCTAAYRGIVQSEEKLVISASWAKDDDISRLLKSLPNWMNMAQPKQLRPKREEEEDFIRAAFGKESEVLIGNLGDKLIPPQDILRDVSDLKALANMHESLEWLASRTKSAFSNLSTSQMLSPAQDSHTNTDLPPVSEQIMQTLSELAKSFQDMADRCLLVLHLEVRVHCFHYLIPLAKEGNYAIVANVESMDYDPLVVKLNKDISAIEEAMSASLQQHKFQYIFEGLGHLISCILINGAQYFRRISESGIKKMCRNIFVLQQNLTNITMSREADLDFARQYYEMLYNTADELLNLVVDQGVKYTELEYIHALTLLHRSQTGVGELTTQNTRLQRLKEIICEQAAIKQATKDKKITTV
UniProt Q8TAG9: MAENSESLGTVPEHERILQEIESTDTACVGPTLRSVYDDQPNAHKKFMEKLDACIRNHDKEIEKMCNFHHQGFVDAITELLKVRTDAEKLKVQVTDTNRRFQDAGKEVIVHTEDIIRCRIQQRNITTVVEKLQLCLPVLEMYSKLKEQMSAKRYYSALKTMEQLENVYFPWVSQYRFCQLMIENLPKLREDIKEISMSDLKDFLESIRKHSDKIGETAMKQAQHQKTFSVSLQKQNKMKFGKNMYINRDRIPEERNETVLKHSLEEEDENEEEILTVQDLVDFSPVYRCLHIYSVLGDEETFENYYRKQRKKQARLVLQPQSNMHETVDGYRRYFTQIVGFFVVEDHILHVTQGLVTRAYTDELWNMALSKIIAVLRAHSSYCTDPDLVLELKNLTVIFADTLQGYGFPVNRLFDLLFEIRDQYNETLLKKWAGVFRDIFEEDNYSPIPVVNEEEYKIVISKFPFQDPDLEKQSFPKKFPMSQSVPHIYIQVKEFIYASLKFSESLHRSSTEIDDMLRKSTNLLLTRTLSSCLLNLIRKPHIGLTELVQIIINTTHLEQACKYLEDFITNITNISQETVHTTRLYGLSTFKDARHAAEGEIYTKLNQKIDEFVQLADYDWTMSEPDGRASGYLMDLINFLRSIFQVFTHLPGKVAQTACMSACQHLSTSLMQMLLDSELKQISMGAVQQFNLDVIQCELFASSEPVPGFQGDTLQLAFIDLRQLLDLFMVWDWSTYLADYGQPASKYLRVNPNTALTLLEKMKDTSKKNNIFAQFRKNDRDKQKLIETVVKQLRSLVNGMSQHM
UniProt Q9UPT5: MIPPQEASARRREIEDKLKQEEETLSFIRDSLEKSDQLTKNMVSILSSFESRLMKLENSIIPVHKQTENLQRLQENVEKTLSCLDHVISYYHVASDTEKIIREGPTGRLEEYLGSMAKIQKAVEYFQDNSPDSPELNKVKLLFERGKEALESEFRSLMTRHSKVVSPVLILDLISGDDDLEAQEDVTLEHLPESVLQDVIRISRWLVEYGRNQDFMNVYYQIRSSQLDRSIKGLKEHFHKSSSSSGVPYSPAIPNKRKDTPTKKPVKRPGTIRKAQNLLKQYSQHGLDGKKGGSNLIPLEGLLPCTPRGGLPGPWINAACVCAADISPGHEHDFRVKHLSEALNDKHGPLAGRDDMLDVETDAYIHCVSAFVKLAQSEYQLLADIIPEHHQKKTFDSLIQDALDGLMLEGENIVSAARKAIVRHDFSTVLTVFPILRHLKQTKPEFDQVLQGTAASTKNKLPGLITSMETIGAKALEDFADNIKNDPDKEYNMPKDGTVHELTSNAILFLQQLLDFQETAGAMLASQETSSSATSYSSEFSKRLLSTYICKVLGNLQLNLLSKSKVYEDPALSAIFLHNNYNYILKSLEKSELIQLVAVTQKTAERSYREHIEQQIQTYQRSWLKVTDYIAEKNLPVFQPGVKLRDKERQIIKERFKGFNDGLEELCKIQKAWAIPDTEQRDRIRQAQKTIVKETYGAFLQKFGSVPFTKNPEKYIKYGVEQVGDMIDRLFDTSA

For experiment [2], the target named is T2, GRAB Δ223-228-GFP (UniProt Q8TBN0).
T2 sequence: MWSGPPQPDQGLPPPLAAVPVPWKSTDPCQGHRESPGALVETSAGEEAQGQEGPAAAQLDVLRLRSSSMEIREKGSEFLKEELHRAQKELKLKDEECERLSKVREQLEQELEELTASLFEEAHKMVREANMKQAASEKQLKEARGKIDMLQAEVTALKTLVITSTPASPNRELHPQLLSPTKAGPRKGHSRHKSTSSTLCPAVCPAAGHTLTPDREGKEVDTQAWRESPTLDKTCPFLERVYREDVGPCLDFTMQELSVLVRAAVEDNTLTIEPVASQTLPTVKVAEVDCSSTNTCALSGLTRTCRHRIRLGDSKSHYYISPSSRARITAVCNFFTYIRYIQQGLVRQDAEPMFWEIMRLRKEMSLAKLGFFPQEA
The description is as above.

Experiment [3] concerns the target T3, GFP-tagged Rab3 (GFP-Rab3a) (UniProt P20336).
T3 sequence: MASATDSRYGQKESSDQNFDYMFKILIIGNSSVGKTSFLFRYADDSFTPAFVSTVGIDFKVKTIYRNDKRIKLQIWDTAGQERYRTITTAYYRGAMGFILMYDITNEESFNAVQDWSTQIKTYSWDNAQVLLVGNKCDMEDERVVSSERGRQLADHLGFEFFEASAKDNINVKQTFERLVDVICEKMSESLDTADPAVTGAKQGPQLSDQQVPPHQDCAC
The experiment is described as above.

The target of experiment [4] is GFP-tagged Rab11a (UniProt P62491). Described as above.
Experiment [5] addresses mCherry-tagged Rab11a (UniProt P62491). Nature of the experiment: co-IP; mCherry-Rab11a precipitated with goat anti-mCherry antibody and Protein G-Sepharose from 500-700 µg pre-cleared HeLa cell extract, overnight at 4°C; washed with RIPA 500 mM NaCl and 150 mM NaCl; western blot.

Results are given in words; binding and its absence hold for the method and conditions named. Binding seen in cells or lysates may run through a third protein. Some results given as binding are weak or reduced against the parent protein; the word gives no strength. For some assays here: Where a sequence is shown, tags or fusion partners need not be part of it.

Consider “mCherry-tagged Rab11a (from UniProt P62491 1-216)”, for which the binding entry in experiment [1], in experiment [2] and in experiment [3] was “binds” throughout. For the molecule Sec8 (from UniProt Q96A65 1-974), the binding entry in experiment [4] is reported as “binds weakly”. For “Myc-tagged Sec15a (from UniProt Q8TAG9 1-804)”, the figures for the binding entry in experiment [1], in experiment [3] and in experiment [4] were “no binding”, “no binding” and “binds weakly”, respectively. As for Exo70 (from UniProt Q9UPT5 1-735), the binding entry in experiment [4] is on record as “binds weakly”.

B1: GFP tagged to wild-type GRAB (GRAB-GFP) (protein, UniProt Q8TBN0 1-382)
chain: MWSGPPQPDQGLPPPLAAVPVPWKSTDPCQGHRESPGALVETSAGEEAQGQEGPAAAQLDVLRLRSSSMEIREKGSEFLKEELHRAQKELKLKDEECERLSKVREQLEQELEELTASLFEEAHKMVREANMKQAASEKQLKEARGKIDMLQAEVTALKTLVITSTPASPNRELHPQLLSPTKAGPRKGHSRHKSTSSTLCPAVCPAAGHTLTPDREGKEVDTILFAEFQAWRESPTLDKTCPFLERVYREDVGPCLDFTMQELSVLVRAAVEDNTLTIEPVASQTLPTVKVAEVDCSSTNTCALSGLTRTCRHRIRLGDSKSHYYISPSSRARITAVCNFFTYIRYIQQGLVRQDAEPMFWEIMRLRKEMSLAKLGFFPQEA
Regarding B1, in experiment [5], the binding entry was “binds”.

B2: GRAB Δ223-228-GFP (protein, UniProt Q8TBN0)
chain: MWSGPPQPDQGLPPPLAAVPVPWKSTDPCQGHRESPGALVETSAGEEAQGQEGPAAAQLDVLRLRSSSMEIREKGSEFLKEELHRAQKELKLKDEECERLSKVREQLEQELEELTASLFEEAHKMVREANMKQAASEKQLKEARGKIDMLQAEVTALKTLVITSTPASPNRELHPQLLSPTKAGPRKGHSRHKSTSSTLCPAVCPAAGHTLTPDREGKEVDTQAWRESPTLDKTCPFLERVYREDVGPCLDFTMQELSVLVRAAVEDNTLTIEPVASQTLPTVKVAEVDCSSTNTCALSGLTRTCRHRIRLGDSKSHYYISPSSRARITAVCNFFTYIRYIQQGLVRQDAEPMFWEIMRLRKEMSLAKLGFFPQEA
For the molecule B2, the binding result in experiment [5] is recorded as “binds”.

B3: GFP-tagged Rab3 (GFP-Rab3a) (protein, UniProt P20336 1-220)
chain: MASATDSRYGQKESSDQNFDYMFKILIIGNSSVGKTSFLFRYADDSFTPAFVSTVGIDFKVKTIYRNDKRIKLQIWDTAGQERYRTITTAYYRGAMGFILMYDITNEESFNAVQDWSTQIKTYSWDNAQVLLVGNKCDMEDERVVSSERGRQLADHLGFEFFEASAKDNINVKQTFERLVDVICEKMSESLDTADPAVTGAKQGPQLSDQQVPPHQDCAC
For B3, the binding result in experiment [5] is “binds”.

The values above are taken from paper PMC8214760.
